Laboratory results published in publication PMC4642984.
Results are given in words; binding and its absence hold for the method and conditions named. In cells and extracts the contact can be indirect. Some binding calls cover weakened binding; strength is not graded here. For some assays here: Where a sequence is shown, tags or fusion partners need not be part of it.

Chains of the proteins cited; added tags and fusions are not shown. Lines headed by an entry give the natural chain unless they say otherwise; changes in a name come on top. A line that says so, or that is headed by a name, gives the form on record, which may keep a tag or linker.
UniProt P67870: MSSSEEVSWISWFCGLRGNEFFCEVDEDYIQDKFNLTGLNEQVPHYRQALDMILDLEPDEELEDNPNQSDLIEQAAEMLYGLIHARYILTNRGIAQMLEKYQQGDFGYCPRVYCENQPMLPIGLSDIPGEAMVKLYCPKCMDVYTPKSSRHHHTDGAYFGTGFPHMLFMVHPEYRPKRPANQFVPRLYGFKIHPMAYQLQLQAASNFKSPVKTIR
BMAL1 (mouse (endogenous in MEFs)) (Q9WTL8, form named): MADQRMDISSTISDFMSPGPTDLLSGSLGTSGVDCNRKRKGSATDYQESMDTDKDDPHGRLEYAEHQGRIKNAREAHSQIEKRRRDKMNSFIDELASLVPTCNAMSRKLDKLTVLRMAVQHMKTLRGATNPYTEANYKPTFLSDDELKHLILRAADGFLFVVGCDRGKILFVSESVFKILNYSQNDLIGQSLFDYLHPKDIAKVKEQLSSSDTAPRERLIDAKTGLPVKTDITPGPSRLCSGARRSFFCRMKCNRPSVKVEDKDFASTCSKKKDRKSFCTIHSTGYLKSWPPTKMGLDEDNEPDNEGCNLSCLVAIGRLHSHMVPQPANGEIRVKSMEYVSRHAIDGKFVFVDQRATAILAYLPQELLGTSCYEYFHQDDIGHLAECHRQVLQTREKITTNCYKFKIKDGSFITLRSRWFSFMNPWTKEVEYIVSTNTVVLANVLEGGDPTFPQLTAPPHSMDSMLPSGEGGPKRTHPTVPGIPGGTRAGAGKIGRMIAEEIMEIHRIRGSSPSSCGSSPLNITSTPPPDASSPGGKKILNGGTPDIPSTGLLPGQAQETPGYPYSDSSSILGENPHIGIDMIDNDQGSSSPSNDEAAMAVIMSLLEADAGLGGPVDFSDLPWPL
UniProt P67871: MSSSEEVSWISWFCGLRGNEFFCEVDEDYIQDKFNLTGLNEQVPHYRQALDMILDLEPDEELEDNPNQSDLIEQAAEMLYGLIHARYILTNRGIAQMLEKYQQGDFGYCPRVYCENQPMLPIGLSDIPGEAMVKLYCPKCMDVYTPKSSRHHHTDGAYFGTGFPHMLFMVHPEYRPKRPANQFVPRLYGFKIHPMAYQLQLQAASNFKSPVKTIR

How the values were obtained:
GST-CK2α′ = GST-CK2α′ (UniProt P19784); assay: pull-down; purified bacterially expressed GST-CK2 subunits mixed 1:1 with in vitro translated 35S-methionine labeled clock proteins, precipitated with glutathione Sepharose beads, SDS-PAGE and autoradiography; only the target purified
GST-CK2β = GST-CK2β (UniProt P67870); assay: as above
GST-CK2α = GST-CK2α (UniProt P68400); assay: as above
Myc-BMAL1-WT = Myc-BMAL1-WT (UniProt Q9WTL8); assay: co-IP; Myc-BMAL1 IP from supernatants of Dex-synchronized Bmal1-/- MEFs stably expressing Myc-BMAL1-WT, -S90A or -K537R, harvested 22 h after treatment; immunoblot for CK2β, CRY1/2 and CLOCK
[1] = molecular target: BMAL1 (mouse (endogenous in MEFs)) (UniProt Q9WTL8); assay: co-IP; endogenous proteins from lysates of mouse embryonic fibroblasts (WT; also BMAL1-deficient, SIRT1KO, and CRYdKO stably expressing Myc-CRY1; unsynchronised or Dex-synchronised, harvested at intervals); IP with anti-BMAL1, anti-CK2α, anti-CK2β or anti-CRY1/2, immunoblot
[2] = molecular target: CK2β (mouse (endogenous in MEFs)) (UniProt P67871); assay: as above

B1: V5-CRY1 (protein, UniProt P97784 1-606)
chain: MGVNAVHWFRKGLRLHDNPALKECIQGADTIRCVYILDPWFAGSSNVGINRWRFLLQCLEDLDANLRKLNSRLFVIRGQPADVFPRLFKEWNITKLSIEYDSEPFGKERDAAIKKLATEAGVEVIVRISHTLYDLDKIIELNGGQPPLTYKRFQTLVSKMEPLEMPADTITSDVIGKCMTPLSDDHDEKYGVPSLEELGFDTDGLSSAVWPGGETEALTRLERHLERKAWVANFERPRMNANSLLASPTGLSPYLRFGCLSCRLFYFKLTDLYKKVKKNSSPPLSLYGQLLWREFFYTAATNNPRFDKMEGNPICVQIPWDKNPEALAKWAEGRTGFPWIDAIMTQLRQEGWIHHLARHAVACFLTRGDLWISWEEGMKVFEELLLDADWSINAGSWMWLSCSSFFQQFFHCYCPVGFGRRTDPNGDYIRRYLPVLRGFPAKYIYDPWNAPEGIQKVAKCLIGVNYPKPMVNHAEASRLNIERMKQIYQQLSRYRGLGLLASVPSNSNGNGGLMGYAPGENVPSCSSSGNGGLMGYAPGENVPSCSGGNCSQGSGILHYAHGDSQQTHSLKQGRSSAGTGLSSGKRPSQEEDAQSVGPKVQRQSSN
modifications: 35S-methionine label
Question: How did the binding (GST-CK2α′) turn out when B1 was run?
Answer: binds

Question: What about the binding (GST-CK2β) of the same binder?
Answer: binds

Question: And the binding (GST-CK2α)?
Answer: binds

B2: V5-CRY2 (protein, UniProt Q9R194 1-592)
chain: MAAAAVVAATVPAQSMGADGASSVHWFRKGLRLHDNPALLAAVRGARCVRCVYILDPWFAASSSVGINRWRFLLQSLEDLDTSLRKLNSRLFVVRGQPADVFPRLFKEWGVTRLTFEYDSEPFGKERDAAIMKMAKEAGVEVVTENSHTLYDLDRIIELNGQKPPLTYKRFQALISRMELPKKPAVAVSSQQMESCRAEIQENHDDTYGVPSLEELGFPTEGLGPAVWQGGETEALARLDKHLERKAWVANYERPRMNANSLLASPTGLSPYLRFGCLSCRLFYYRLWDLYKKVKRNSTPPLSLFGQLLWREFFYTAATNNPRFDRMEGNPICIQIPWDRNPEALAKWAEGKTGFPWIDAIMTQLRQEGWIHHLARHAVACFLTRGDLWVSWESGVRVFDELLLDADFSVNAGSWMWLSCSAFFQQFFHCYCPVGFGRRTDPSGDYIRRYLPKLKGFPSRYIYEPWNAPESVQKAAKCIIGVDYPRPIVNHAETSRLNIERMKQIYQQLSRYRGLCLLASVPSCVEDLSHPVAEPGSSQAGSISNTGPRALSSGPASPKRKLEAAEEPPGEELTKRARVTEMPTQEPASKDS
modifications: 35S-methionine label
Question: Which results are given for B2?
Answer: binding (GST-CK2α′): binds; binding (GST-CK2β): binds; binding (GST-CK2α): binds

B3: CLOCK (protein, UniProt O08785 1-855)
chain: MVFTVSCSKMSSIVDRDDSSIFDGLVEEDDKDKAKRVSRNKSEKKRRDQFNVLIKELGSMLPGNARKMDKSTVLQKSIDFLRKHKETTAQSDASEIRQDWKPTFLSNEEFTQLMLEALDGFFLAIMTDGSIIYVSESVTSLLEHLPSDLVDQSIFNFIPEGEHSEVYKILSTHLLESDSLTPEYLKSKNQLEFCCHMLRGTIDPKEPSTYEYVRFIGNFKSLTSVSTSTHNGFEGTIQRTHRPSYEDRVCFVATVRLATPQFIKEMCTVEEPNEEFTSRHSLEWKFLFLDHRAPPIIGYLPFEVLGTSGYDYYHVDDLENLAKCHEHLMQYGKGKSCYYRFLTKGQQWIWLQTHYYITYHQWNSRPEFIVCTHTVVSYAEVRAERRRELGIEESLPETAADKSQDSGSDNRINTVSLKEALERFDHSPTPSASSRSSRKSSHTAVSDPSSTPTKIPTDTSTPPRQHLPAHEKMTQRRSSFSSQSINSQSVGPSLTQPAMSQAANLPIPQGMSQFQFSAQLGAMQHLKDQLEQRTRMIEANIHRQQEELRKIQEQLQMVHGQGLQMFLQQSNPGLNFGSVQLSSGNSNIQQLTPVNMQGQVVPANQVQSGHISTGQHMIQQQTLQSTSTQQSQQSVMSGHSQQTSLPSQTPSTLTAPLYNTMVISQPAAGSMVQIPSSMPQNSTQSATVTTFTQDRQIRFSQGQQLVTKLVTAPVACGAVMVPSTMLMGQVVTAYPTFATQQQQAQTLSVTQQQQQQQQQPPQQQQQQQQSSQEQQLPSVQQPAQAQLGQPPQQFLQTSRLLHGNPSTQLILSAAFPLQQSTFPPSHHQQHQPQQQQQLPRHRTDSLTDPSKVQPQ
Question: Which binding (Myc-BMAL1-WT) does the source give for B3 here?
Answer: binds

B4: CK2α (enzyme, UniProt Q60737 1-391)
chain: MSGPVPSRARVYTDVNTHRPREYWDYESHVVEWGNQDDYQLVRKLGRGKYSEVFEAINITNNEKVVVKILKPVKKKKIKREIKILENLRGGPNIITLADIVKDPVSRTPALVFEHVNNTDFKQLYQTLTDYDIRFYMYEILKALDYCHSMGIMHRDVKPHNVMIDHEHRKLRLIDWGLAEFYHPGQEYNVRVASRYFKGPELLVDYQMYDYSLDMWSLGCMLASMIFRKEPFFHGHDNYDQLVRIAKVLGTEDLYDYIDKYNIELDPRFNDILGRHSRKRWERFVHSENQHLVSPEALDFLDKLLRYDHQSRLTAREAMEHPYFYTVVKDQARMSSTSMAGGSTPVSSANMMSGISSVPTPSPLGPLAGSPVIAAANSLGIPVPAAAGAQQ
Question: Which binding [1] does the source give for B4 here?
Answer: binds

B5: CRY1 (protein, UniProt P97784 1-606)
chain: MGVNAVHWFRKGLRLHDNPALKECIQGADTIRCVYILDPWFAGSSNVGINRWRFLLQCLEDLDANLRKLNSRLFVIRGQPADVFPRLFKEWNITKLSIEYDSEPFGKERDAAIKKLATEAGVEVIVRISHTLYDLDKIIELNGGQPPLTYKRFQTLVSKMEPLEMPADTITSDVIGKCMTPLSDDHDEKYGVPSLEELGFDTDGLSSAVWPGGETEALTRLERHLERKAWVANFERPRMNANSLLASPTGLSPYLRFGCLSCRLFYFKLTDLYKKVKKNSSPPLSLYGQLLWREFFYTAATNNPRFDKMEGNPICVQIPWDKNPEALAKWAEGRTGFPWIDAIMTQLRQEGWIHHLARHAVACFLTRGDLWISWEEGMKVFEELLLDADWSINAGSWMWLSCSSFFQQFFHCYCPVGFGRRTDPNGDYIRRYLPVLRGFPAKYIYDPWNAPEGIQKVAKCLIGVNYPKPMVNHAEASRLNIERMKQIYQQLSRYRGLGLLASVPSNSNGNGGLMGYAPGENVPSCSSSGNGGLMGYAPGENVPSCSGGNCSQGSGILHYAHGDSQQTHSLKQGRSSAGTGLSSGKRPSQEEDAQSVGPKVQRQSSN
Question: With B5 as the binder, how does the binding [2] read?
Answer: binds

B6: CRY2 (protein, UniProt Q9R194 1-592)
chain: MAAAAVVAATVPAQSMGADGASSVHWFRKGLRLHDNPALLAAVRGARCVRCVYILDPWFAASSSVGINRWRFLLQSLEDLDTSLRKLNSRLFVVRGQPADVFPRLFKEWGVTRLTFEYDSEPFGKERDAAIMKMAKEAGVEVVTENSHTLYDLDRIIELNGQKPPLTYKRFQALISRMELPKKPAVAVSSQQMESCRAEIQENHDDTYGVPSLEELGFPTEGLGPAVWQGGETEALARLDKHLERKAWVANYERPRMNANSLLASPTGLSPYLRFGCLSCRLFYYRLWDLYKKVKRNSTPPLSLFGQLLWREFFYTAATNNPRFDRMEGNPICIQIPWDRNPEALAKWAEGKTGFPWIDAIMTQLRQEGWIHHLARHAVACFLTRGDLWVSWESGVRVFDELLLDADFSVNAGSWMWLSCSAFFQQFFHCYCPVGFGRRTDPSGDYIRRYLPKLKGFPSRYIYEPWNAPESVQKAAKCIIGVDYPRPIVNHAETSRLNIERMKQIYQQLSRYRGLCLLASVPSCVEDLSHPVAEPGSSQAGSISNTGPRALSSGPASPKRKLEAAEEPPGEELTKRARVTEMPTQEPASKDS
Question: B6 was tested. Which binding [2] did it give?
Answer: binds

B7: Myc-CRY1 (protein, UniProt P97784 1-606)
chain: MGVNAVHWFRKGLRLHDNPALKECIQGADTIRCVYILDPWFAGSSNVGINRWRFLLQCLEDLDANLRKLNSRLFVIRGQPADVFPRLFKEWNITKLSIEYDSEPFGKERDAAIKKLATEAGVEVIVRISHTLYDLDKIIELNGGQPPLTYKRFQTLVSKMEPLEMPADTITSDVIGKCMTPLSDDHDEKYGVPSLEELGFDTDGLSSAVWPGGETEALTRLERHLERKAWVANFERPRMNANSLLASPTGLSPYLRFGCLSCRLFYFKLTDLYKKVKKNSSPPLSLYGQLLWREFFYTAATNNPRFDKMEGNPICVQIPWDKNPEALAKWAEGRTGFPWIDAIMTQLRQEGWIHHLARHAVACFLTRGDLWISWEEGMKVFEELLLDADWSINAGSWMWLSCSSFFQQFFHCYCPVGFGRRTDPNGDYIRRYLPVLRGFPAKYIYDPWNAPEGIQKVAKCLIGVNYPKPMVNHAEASRLNIERMKQIYQQLSRYRGLGLLASVPSNSNGNGGLMGYAPGENVPSCSSSGNGGLMGYAPGENVPSCSGGNCSQGSGILHYAHGDSQQTHSLKQGRSSAGTGLSSGKRPSQEEDAQSVGPKVQRQSSN
Question: For B7, which binding [2] is on record?
Answer: binds
